According to PubChem BioAssay AID1460 (National Center for Advancing Translational Sciences (NCATS), 2008):
About 5,800 (2.1%) of roughly 270,000 compounds were called active. The inconclusive results got no clear call from the source; some entries with a clear call stand among them for comparison. Calls follow the shape of the dose curve; as a rule, active = well fitted inhibition curve with a large enough effect; inconclusive = small, poorly fitted or top-dose-only effect; inactive = flat fitted curve, though single readings scatter. Where the call is inconclusive, the potency comes from a doubtful curve fit.

Target: Microtubule-associated protein tau (Homo sapiens) (UniProt P10636)
Assay: qHTS for Inhibitors of Tau Fibril Formation, Thioflavin T Binding; also: nearly all actives have a fitted effect of over 55% in size
Details: recombinant tau K18 P301L (four-repeat tau fragment), heparin-induced fibrillization, ThT fluorescence; series mostly up to 57.4 µM; activity, negative = inhibition: at the top concentration
In short: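 Heparin-induced (20 uM) aggregation of recombinant human K18 P301L tau, 15 uM unlabeled with 0.24 uM labeled, pH 7 acetate buffer, 6 hr at 37 C with compound. Fibrils quantified by 30 uM ThT fluorescence after 1 hr ambient incubation.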
% is scaled to controls: 0 for no effect and ±100 for the full control effect; potency is read from the fitted curve at half-maximal effect; tags tell the direction and shape of the fitted curve.

Chain of UniProt P10636 (P10636 whole entry, looked up): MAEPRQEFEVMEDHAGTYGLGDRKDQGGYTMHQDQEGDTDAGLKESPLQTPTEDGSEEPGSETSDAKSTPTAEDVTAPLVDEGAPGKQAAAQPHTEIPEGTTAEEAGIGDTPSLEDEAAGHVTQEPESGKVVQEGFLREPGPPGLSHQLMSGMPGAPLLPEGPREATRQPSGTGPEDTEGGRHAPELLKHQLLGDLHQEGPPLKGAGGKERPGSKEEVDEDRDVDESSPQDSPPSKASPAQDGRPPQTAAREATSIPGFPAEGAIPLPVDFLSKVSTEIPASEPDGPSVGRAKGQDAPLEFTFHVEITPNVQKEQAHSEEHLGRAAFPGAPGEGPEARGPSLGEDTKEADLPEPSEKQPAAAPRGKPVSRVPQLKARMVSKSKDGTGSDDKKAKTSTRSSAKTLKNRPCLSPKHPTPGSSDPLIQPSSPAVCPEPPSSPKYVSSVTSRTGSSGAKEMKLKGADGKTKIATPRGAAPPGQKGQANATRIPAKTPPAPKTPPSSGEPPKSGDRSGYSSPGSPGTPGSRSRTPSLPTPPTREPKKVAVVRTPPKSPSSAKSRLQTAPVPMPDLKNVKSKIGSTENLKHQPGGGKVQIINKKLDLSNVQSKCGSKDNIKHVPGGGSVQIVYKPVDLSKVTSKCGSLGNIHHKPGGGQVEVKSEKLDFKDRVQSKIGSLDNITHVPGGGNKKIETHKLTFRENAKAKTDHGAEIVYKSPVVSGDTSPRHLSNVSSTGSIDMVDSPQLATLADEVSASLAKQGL

SMILES | Potency | activity, negative = inhibition
Cc1cccc(NC(=O)c2ccc(NCC3CCCO3)c([N+](=O)[O-])c2)n1 (stereo unspecified) | inconclusive: 28.2 µM [inhibitor, partial curve] | 
O=C(O)C(Cc1ccccc1)N1C(=O)/C(=C/c2cccnc2)SC1=S (stereo unspecified) | inconclusive: 12.6 µM [inhibitor, partial curve, poor fit] | 
CC(=O)c1c(C)[nH]c(C(=O)COC(=O)CCSc2ccccc2)c1C | inconclusive: 35.5 µM [inhibitor, single point] | 
Cn1ncc([N+](=O)[O-])c1C(=O)N/N=C/c1c[nH]c2ccccc12 | inconclusive: 39.8 µM [inhibitor, single point] | 
COc1ccccc1-c1c(C)oc2cc(OCC(=O)OCc3ccccc3)ccc2c1=O |  | inactive: -16.7%
O=C(CCNC(=O)c1ccccc1Cl)Nc1nc(-c2ccc3ccccc3c2)cs1 | inconclusive: 6.31 µM [inhibitor, partial curve] | 
CCCOc1ccc(-c2nc(C#N)c(N3CCc4ccccc4C3)o2)cc1 | inconclusive: 10 µM [inhibitor, partial curve, poor fit] | 
CCn1c(SCC(=O)Nc2cc(F)ccc2C)nnc1-c1ccccc1O | inconclusive: 39.8 µM [inhibitor, single point] | 
CC(Oc1ccc(Cl)cc1Cl)c1nc(-c2ccc(NC(=O)c3ccncc3)cc2)no1 (stereo unspecified) |  | inactive: -3.23%
CC(C)=CCC/C(C)=C/CO/N=C1/C[C@@H](O)[C@@H](O)[C@@H]2[C@H]3C(=O)N(c4ccc(F)cc4F)C(=O)[C@@H]3CC[C@@H]12 |  | inactive: -6.74% [at 11.5 µM]
COc1ccc(CN2CCSCC2)cc1O |  | inactive: -5.08%
Nc1nc(-c2ccco2)nn1C(=O)c1ccccc1 | inconclusive: 14.1 µM [inhibitor, partial curve] | 
CCOC(=O)N1CCC(=NNc2nc3ccccc3s2)CC1 | inconclusive: 2 µM [inhibitor, full curve] | 
Brc1ccc(C2NCCS2)cc1 (stereo unspecified) | inconclusive: 35.5 µM [inhibitor, single point] | 
COc1ccc(N2CCN(C(=O)CCS(=O)(=O)c3cc(Br)cc4c3N(C(=O)C3CC3)CC4)CC2)cc1 | inconclusive: 11.2 µM [inhibitor, partial curve] | 
CCN1CCN(CCNC(=O)c2ccc(/C=C3/Sc4ccccc4N(Cc4cccc(Cl)c4)C3=O)cc2)CC1 | inconclusive: 39.8 µM [inhibitor, single point] | 
Cc1ccc(NC(=O)CN2C=NS(=O)(=O)c3ccccc32)c(C)c1 |  | inactive: 11.1%
O=C(CN1C(=O)C2CC=CCC2C1=O)N1CCN(c2ccc([N+](=O)[O-])cc2)CC1 (stereo unspecified) | inconclusive: 12.6 µM [inhibitor, partial curve] | 
CCCCn1c(NC(C)=O)c(C#N)c2nc3ccccc3nc21 |  | inactive: -3.95%
CCOc1cc(S(=O)(=O)N(Cc2ccccc2)Cc2ccccc2)c(OCC)cc1-n1cnnn1 |  | inactive: -0.648%
CCN1C(=O)S/C(=C/c2c(OCc3ccc(C(=O)O)cc3)ccc3ccccc23)C1=O | inconclusive: 14.1 µM [inhibitor, partial curve] | 
COc1cnc(-c2ccccn2)nc1Sc1c(Cl)cccc1Cl |  | inactive: -13.7%

SMILES | Potency | activity, negative = inhibition
Cc1c(C(=O)Nc2ccccc2)csc1-c1ccccc1 | inconclusive: 7.94 µM [inhibitor, partial curve] | 
CCCCNC(=O)CSc1nc(CCC)nc2ccccc12 | inconclusive: 17.8 µM [inhibitor, single point] | 
COc1ccc(/C=c2/sc3n(c2=O)C(c2ccccc2OC)C2=C(N=3)c3ccccc3CC2)cc1O (stereo unspecified) | inconclusive: 10 µM [inhibitor, partial curve] | 
CC(Nc1cccc2ccccc12)C(=O)N/N=C/c1ccccn1 (stereo unspecified) | inconclusive: 20 µM [inhibitor, partial curve] | 
CCOC(=O)C1CCN(C(c2ccc(OCC)cc2)c2c(O)cc(C)n(CCOC)c2=O)CC1 (stereo unspecified) | inconclusive: 8.91 µM [inhibitor, partial curve] | 
CCC(C)NC(=S)Nc1ccccc1OC (stereo unspecified) |  | inactive: 1.71%
COc1ccccc1N(C(=O)Cn1nnc2ccccc21)C(C(=O)NCc1ccco1)c1ccc(C)o1 (stereo unspecified) | inconclusive: 15.8 µM [inhibitor, partial curve, poor fit] | 
Nc1ccc2ncccc2c1N | active: 25.1 µM | 
O=C(CSc1nccc(=O)[nH]1)N1N=C2/C(=C/c3ccco3)CCCC2C1c1ccco1 (stereo unspecified) | inconclusive: 20 µM [inhibitor, single point] | 
C(=N\Nc1nc(N2CCCCC2)nc(N2CCCCC2)n1)/c1c[nH]c2ccccc12 | inconclusive: 6.31 µM [inhibitor, single point] | 
CCOC(=O)C1=C(C)N(C)C(=O)NC1c1cc2c(cc1[N+](=O)[O-])OCO2 (stereo unspecified) | inconclusive: 39.8 µM [inhibitor, partial curve] | 
CCOC(=O)N1CCC(N(CCN(C)C)C(=S)Nc2cc(C)cc(C)c2)CC1 |  | inactive: -9.01%
Cn1c(SC/C=C/c2ccccc2)nnc1-c1ccco1 | inconclusive: 22.4 µM [inhibitor, single point] | 
O=C(c1ccccc1)N1CCCC(c2nc3c(nnn3Cc3ccc(F)cc3F)c(=O)[nH]2)C1 (stereo unspecified) | inconclusive: 3.55 µM [inhibitor, single point] | 
Oc1ccccc1Nc1nc(NCC2CCCO2)c2ccccc2n1 (stereo unspecified) | inconclusive: 28.2 µM [inhibitor, partial curve, poor fit] | 
O=C(COCc1cc(-c2cccs2)on1)N1CCN(c2ccc(F)cc2)CC1 | inconclusive: 2.51 µM [inhibitor, partial curve] | 
COc1ccc(OC)c(-c2cc(C(=O)Nc3ccc(F)cc3F)no2)c1 |  | inactive: -4.53%
COCCCNC(=S)N1CCN(C)CC1 | inconclusive: 4.47 µM [activator, partial curve] | 
CCOc1cccc(NC(=O)c2sc3nc(-c4ccc(F)cc4)ccc3c2N)c1 | inconclusive: 0.631 µM [inhibitor, full curve] | 
CCOC(=O)c1nc(Nc2ccc(N3CCC(C)CC3)cc2)c2ccccc2n1 | inconclusive: 11.2 µM [inhibitor, partial curve] | 
CCOC(=O)C1CCN(c2nc3c(S(=O)(=O)c4ccccc4)nnn3c3ccc(Cl)cc23)CC1 |  | inactive: -1.53%
CS(=O)(=O)N1CCN(c2ccc([N+](=O)[O-])c(NCCN3CCOCC3)c2)CC1 | inconclusive: 35.5 µM [inhibitor, partial curve] | 

SMILES | Potency | activity, negative = inhibition
CCOC(=O)/C=C/C(=O)OCC(=O)NCc1ccccc1 | inconclusive: 3.55 µM [inhibitor, full curve] | 
Cc1ccc(-c2nc(C=Nc3ccccc3)c(O)o2)cc1 | inconclusive: 6.31 µM [inhibitor, partial curve] | 
Cc1nnc2sc(SCC(=O)Nc3ccc(Br)cc3)nn2c1=O | inconclusive: 15.8 µM [inhibitor, partial curve] | 
O=C(C[n+]1ccc(/C=C/c2ccccc2)cc1)c1ccc2c(c1)OCCO2 | inconclusive: 2.82 µM [inhibitor, partial curve] | 
CCOC(=O)C1=C(O)/C(=C\c2ccc(CNC(=O)C(=O)Nc3ccc(C)c(C)c3)o2)N=C1C | inconclusive: 7.08 µM [inhibitor, partial curve] | 
Cc1cc(=O)[nH]c(N/N=C/c2ccc(Cl)c([N+](=O)[O-])c2)n1 | inconclusive: 1.78 µM [inhibitor, full curve] | 
COc1ccc2c3c(cccc13)OCC2=O | inconclusive: 39.8 µM [inhibitor, single point] | 
Cc1ccc(NC(=S)NNC(=O)Cn2nc(C(F)F)cc2C(F)F)cc1 |  | inactive: -7.83%
CCOc1ccc(-c2cc3c(=O)n(Cc4nc(-c5ccccc5OCC)oc4C)ccn3n2)cc1Cl |  | inactive: 4.99%
COc1cc2c(cc1OC)C1(Nc3c-2c(-c2ccccc2)nn3-c2ccccc2)C(=O)Nc2ccccc21 (stereo unspecified) | inconclusive: 25.1 µM [inhibitor, partial curve] | 
Cc1ccc(NC(=O)c2ccc(Cl)cc2Cl)c(C(=O)c2ccccc2)c1 |  | inactive: -13%
C=CCOC(=O)C1=C(C)NC(SCC(=O)Nc2nccs2)=C(C#N)C1c1cccs1 (stereo unspecified) | inconclusive: 25.1 µM [inhibitor, partial curve] | 
CCOC(=O)c1cccc(NS(=O)(=O)c2ccc3[nH]c4c(c3c2)CCCC4)c1 |  | inactive: -1.12%
CC1=C/C(=C\C=C(C#N)C#N)N(C)c2ccccc21 | inconclusive: 1 µM [inhibitor, partial curve] | 
Cc1cccc(C(=O)NCCc2nc3ccccc3n2Cc2ccc(Cl)cc2)c1 | inconclusive: 1.26 µM [inhibitor, full curve, poor fit] | 
Cc1nc2ncccn2c1-c1csc(Nc2ccccc2)n1 | inconclusive: 12.6 µM [inhibitor, partial curve] | 
O=C(Nc1ccc(N2CCOCC2)c(Cl)c1)c1cccc(F)c1 | inconclusive: 15.8 µM [inhibitor, partial curve] | 
CCOC(=O)c1ccc2nc(C)cc(Nc3ccc(OC(C)C)cc3)c2c1 | inconclusive: 17.8 µM [inhibitor, partial curve] | 
Cc1cc(/C=N/n2c(COc3ccccc3)nc3ccccc3c2=O)c(O)c([N+](=O)[O-])c1 | active: 11.2 µM | 
Cc1cccc(N2CCN(C(=O)Cn3ncc4c5ccccc5n(C)c4c3=O)CC2C)c1 (stereo unspecified) | inconclusive: 12.6 µM [inhibitor, partial curve] | 
CC(=O)N1CCN(c2ccc([N+](=O)[O-])c(NCc3cccnc3)c2)CC1 | inconclusive: 15.8 µM [inhibitor, partial curve] | 
COc1cccc(C(=O)N2CCN(Cc3cccc(F)c3)CC2)c1 |  | inactive: -10.5%
